Assay results published in PubChem BioAssay AID485281 (National Center for Advancing Translational Sciences (NCATS), 2010).
About 260 (0.074%) of roughly 350,000 compounds were called active. The shares of active, inactive and inconclusive entries below differ from those in the screen. Calls follow the shape of the dose curve; as a rule, active = well fitted inhibition curve with a large enough effect; inconclusive = small, poorly fitted or top-dose-only effect; inactive = no such curve, though single readings can be large or run the other way. Potencies beside an inconclusive call are fits to weak or partial responses and may not hold up.

target: Ferritin light chain (Equus caballus) (UniProt P02791); experiment: qHTS Assay for Identification of Novel General Anesthetics; conditions: apoferritin/1-aminoanthracene competitive binding, fluorescence; series mostly up to 77.5 µM; also: nearly all actives have a fitted effect of over 20% in size
How it was run: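 Concentration-response curves derived by four-parameter Hill fitting of normalized fluorescence, where compounds displaced 1-AMA from 10 uM horse apoferritin following a brief 10 min room-temperature incubation; propofol titration acted as positive control.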
Potency is read from the fitted curve at half-maximal effect; tags tell the direction and shape of the fitted curve.

Sequence of UniProt P02791 (P02791 whole entry, looked up): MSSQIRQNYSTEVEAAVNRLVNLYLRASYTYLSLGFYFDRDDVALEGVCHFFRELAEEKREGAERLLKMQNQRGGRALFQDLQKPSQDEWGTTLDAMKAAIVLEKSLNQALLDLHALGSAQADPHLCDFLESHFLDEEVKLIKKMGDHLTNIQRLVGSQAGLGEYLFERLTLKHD

Row | Structure (SMILES) | Potency
1 | COc1ccc(N(C(C)C(=O)NCCSCc2cccc(Cl)c2)S(C)(=O)=O)cc1 (centres undefined) | inconclusive: 31.6 µM [inhibitor, single point]
2 | Cc1cc(C)c2c(=O)n(CC(=O)NC3CCCC3)sc2n1 | inactive
3 | O=c1cc(N2CCCCC2)c(-c2ccccc2)nn1Cc1ccccc1 | inconclusive: 10 µM [inhibitor, partial curve, poor fit]
4 | CN(C)CCCN(C(=O)c1ccc(S(=O)(=O)N2CCCCC2)cc1)c1nc2cc3c(cc2s1)OCO3 | inconclusive: 20 µM [inhibitor, partial curve]
5 | CC1(C(=O)NCCCNc2ncc(C(F)(F)F)cc2Cl)C=CC2(CCCCC2)N1C(=O)c1ccccc1 (centres undefined) | inconclusive: 15.8 µM [inhibitor, partial curve]
6 | COc1cc(OC)c2c(-c3ccccc3)cc(=O)oc2c1C(CCN1CCCC(C)C1)c1ccc(N(C)C)cc1 (centres undefined) | inconclusive: 35.5 µM [inhibitor, partial curve]
7 | COc1ccc(CC(=O)N2CCCc3ccccc32)cc1 | inconclusive: 22.4 µM [inhibitor, partial curve]
8 | C=CCn1c(Cc2cccs2)nnc1SCC(=O)c1ccc2ccccc2c1 | inconclusive: 39.8 µM [inhibitor, partial curve]
9 | COCCNC(=O)/C(C#N)=C/c1ccc(OCc2ccc(F)cc2)cc1 | inconclusive: 20 µM [inhibitor, partial curve]
10 | CNc1c([N+](=O)[O-])cnn1-c1ccc(Cl)cc1Cl | inactive
11 | Cc1cc(C)cc(CN2C(=O)NC3(CCCCCC3)C2=O)c1 | inconclusive: 28.2 µM [inhibitor, partial curve]
12 | Cc1[nH]c2ccccc2c1N=Nc1cc(C(=O)O)cc(C(=O)O)c1 | inactive
13 | COc1ccc(CN(C)C(=O)c2cccc(NS(=O)(=O)c3ccccc3)c2)cc1F | inconclusive: 31.6 µM [inhibitor, partial curve]
14 | COc1ccc(-c2nc(SCC(=O)NCCCc3ccccc3)n[nH]2)cc1 | inconclusive: 50.1 µM [inhibitor, single point]
15 | O=C(CCNS(=O)(=O)c1ccc(Cl)cc1)N1CCN(Cc2ccccc2)CC1 | inconclusive: 25.1 µM [inhibitor, partial curve]
16 | Cc1ccc(NNC(=S)Nc2ccc(C(C)C)cc2)c(C)c1 | inconclusive: 25.1 µM [inhibitor, partial curve]
17 | Nc1nc(=S)c2ncn(C3OC(CO)C(O)C3O)c2[nH]1 (centres undefined) | inactive
18 | OCC1(Cc2cccc(F)c2)CCN(Cc2ccc3cccc(F)c3n2)CC1 | inactive
19 | CCn1cc(CN2CCC(C(=O)Nc3ccc(Oc4ccccc4F)cc3)CC2)c(C)n1 | inconclusive: 35.5 µM [inhibitor, partial curve]
20 | COc1ccc([N+](=O)[O-])cc1NCc1ccccc1 | inconclusive: 28.2 µM [inhibitor, single point]
21 | COc1cccc(/C=N/NC(=O)CO/N=C(\C)c2cccs2)c1OC | inconclusive: 25.1 µM [inhibitor, partial curve]
22 | O=C(Cn1nc(-c2ccccc2F)ccc1=O)Nc1ccc(S(=O)(=O)N2CCCCCC2)cc1 | inconclusive: 11.2 µM [inhibitor, partial curve]
23 | CCN(CC)CCCNC(=O)c1oc2c(c1C)-c1nn(Cc3ccc(Cl)cc3)cc1CC2 | inactive

Row | Structure (SMILES) | Potency
24 | Cc1cccc(Cn2nc(C)cc2NC(=O)Cn2cc([N+](=O)[O-])cn2)c1 | inconclusive: 31.6 µM [inhibitor, single point]
25 | COc1ccccc1-n1nnnc1SCc1cc2c(cc1Br)OCO2 | inactive
26 | CCOc1ncccc1C(=O)Nc1ccc(Cl)c(S(=O)(=O)N2CCCC2)c1 | inconclusive: 31.6 µM [inhibitor, partial curve]
27 | CC(C)C[C@H](NC(=O)c1[nH]cnc1C(=O)N[C@@H](C)c1ccccc1)C(=O)OC(C)(C)C | inconclusive: 2 µM [inhibitor, full curve, poor fit]
28 | CCOc1ccc(C2c3c(-c4ccccc4O)n[nH]c3C(=O)N2Cc2ccncc2)cc1 (centres undefined) | inactive
29 | CCNC(=S)Nc1ccc2ncoc2c1 | inactive
30 | COC(=O)c1ccc(NC(=O)CN(c2ccc(C)cc2)S(=O)(=O)c2c(C)n[nH]c2C)cc1 | inconclusive: 28.2 µM [inhibitor, partial curve]
31 | CCC(Sc1nncn2c1cc1sccc12)C(=O)Nc1cccc(OC)c1 (centres undefined) | inactive
32 | O=C(NNC(=O)C1CC1c1ccccc1)Nc1cccc(Cl)c1 (centres undefined) | inconclusive: 44.7 µM [inhibitor, partial curve]
33 | Cc1ccccc1OCCNC(=O)CNC(=O)c1ccccc1O | inactive
34 | CC1CCC2(CC1)NC(=O)N(CC(=O)c1ccc[nH]1)C2=O (centres undefined) | inconclusive: 17.8 µM [inhibitor, partial curve]
35 | Cc1noc(-c2ccccc2OCC(=O)Nc2cccc([N+](=O)[O-])c2)n1 | inconclusive: 17.8 µM [inhibitor, partial curve]
36 | Cc1ccc(Nc2c([N+](=O)[O-])c(=O)n(C)c3ccccc23)cc1 | inconclusive: 25.1 µM [inhibitor, partial curve]
37 | Cn1c(C(=O)O)cc2c(=O)n3ccccc3nc21 | inactive
38 | O=C1c2ccccc2C(=O)N1CCOc1cccc(Br)c1 | inconclusive: 25.1 µM [inhibitor, partial curve]
39 | CCOC(=O)c1ccc(NC(=O)CN2C(=O)NC3(CCCCCC3)C2=O)cc1 | inconclusive: 20 µM [inhibitor, partial curve]
40 | O=C(CS(=O)c1ccccc1[N+](=O)[O-])Oc1ccc(Br)cc1 (centres undefined) | inconclusive: 22.4 µM [inhibitor, partial curve]
41 | Cc1ccc(C)c(N(C)C(=O)C2CCN(S(=O)(=O)c3cccc4nsnc34)CC2)c1 | inconclusive: 11.2 µM [inhibitor, partial curve]
42 | C/C(CCN1CCc2nc(-c3ccccc3)c(-c3ccccc3)cc2C1)=N\OC[C@@H](O)COCc1ccco1 | inconclusive: 10 µM [inhibitor, single point]
43 | COc1cccc(CC(=O)N2CCCC(CO)(Cc3ccc(F)cc3F)C2)c1 (centres undefined) | inconclusive: 11.2 µM [inhibitor, partial curve]
44 | O=C(CSc1nnc(Cc2cccs2)n1Cc1ccco1)Nc1cccc(Cl)c1 | inactive
45 | Clc1cccc(/C=N/Nc2nnc(Cl)c3ccccc23)c1 | inconclusive: 44.7 µM [inhibitor, partial curve]
46 | O=C(N/N=C/c1ccccc1O)NC12CC3CC(CC(C3)C1)C2 | inconclusive: 35.5 µM [inhibitor, single point]

Row | Structure (SMILES) | Potency
47 | COc1cccc(OCc2cc(C(=O)N3CCC(c4ccncc4)CC3)no2)c1 | inactive
48 | CC1CCC2C(=O)N(c3ccc(S(=O)(=O)c4ccccc4)cc3)C(=O)C2C1 (centres undefined) | inconclusive: 35.5 µM [inhibitor, single point]
49 | COc1ccc([N+](=O)[O-])cc1NC(=O)CSCc1ccccc1 | inactive
50 | Cc1cc(O)cc2c1C(c1ccc(F)cc1)CC1(CC(C)(C)NC(=S)N1)O2 (centres undefined) | inconclusive: 7.94 µM [inhibitor, partial curve]
51 | CCOc1ccc(S(=O)(=O)NCC(=O)N(C)Cc2cccnc2)cc1 | inconclusive: 50.1 µM [inhibitor, single point]
52 | Cc1ccc(CNC(=O)CCCc2cn(C)c3ccccc23)cc1 | inactive
53 | O=S(=O)(NCCc1csc(-c2ccc(F)cc2)n1)c1ccc(Cl)cc1 | inactive
54 | CCS(=O)(=O)N1Cc2ccccc2CC1C(=O)Nc1cccc(C)c1 (centres undefined) | inconclusive: 39.8 µM [inhibitor, single point]
55 | COCC(=O)N/N=C\c1ccccc1OC/C=C/c1ccccc1 | inconclusive: 15.8 µM [inhibitor, partial curve]
56 | O=C(CCCN1C(=O)c2ccccc2C1=O)Nc1ccc(S(=O)(=O)N2CCCCC2)cc1 | inconclusive: 28.2 µM [inhibitor, partial curve]
57 | O=C1OC(Nc2ccc3c(c2)OCO3)c2ccccc21 (centres undefined) | inconclusive: 20 µM [inhibitor, partial curve]
58 | Cc1ccc(N=Nc2ccc(O)c3ncccc23)cc1 | inactive
59 | CC[C@@H](C(=O)[C@@H](C)[C@@H](O)[C@H](C)CCc1ccc(C)c(O)c1C(=O)O)C1O[C@](CC)(C2CC[C@](O)(CC)[C@H](C)O2)C[C@@H]1C (some centres undefined) | inactive
60 | Cc1ccc2c(CNCCc3ccc(Cl)cc3)c(C(=O)O)n(Cc3ccc(F)cc3)c2c1 | inconclusive: 3.55 µM [inhibitor, full curve, poor fit]
61 | CCCNc1nc2c(c(=O)n(C)c(=O)n2C)n1Cc1cccc(C)c1 | inactive
62 | CCOc1ccc(CNC(=O)c2ccc3nc(Cc4ccc(OC)cc4)oc3c2)cc1OC | inactive
63 | CC1(C)CC(=O)C2=C(C1)N=C1c3ccccc3C(=O)C1C2c1ccc(Cl)cc1 (centres undefined) | inactive
64 | Cc1c(C(C)(C)O)[nH]c2cc(C(F)(F)F)ccc12 | inconclusive: 31.6 µM [inhibitor, partial curve]
65 | Cc1ccc(Nc2nnc(SCC(=O)c3ccc(O)cc3O)s2)cc1 | inactive
66 | O=C1/C(=C/Nc2cccc([N+](=O)[O-])c2)CCc2ccccc21 | inconclusive: 50.1 µM [inhibitor, single point]
67 | COc1ccccc1NC(=O)c1ccc(Br)c(S(=O)(=O)N2CCCC2)c1 | inconclusive: 50.1 µM [inhibitor, single point]
68 | Cc1ccc(Cl)cc1NC(=O)c1ccc(-c2nc(CSc3ccccc3)c(C)o2)cc1 | inactive
69 | Oc1ccc(/C=N/Nc2ccc(Cl)nn2)c(O)c1O | inactive
